Laboratory results reported in PMC4336329 (PLoS ONE, 2015).
Among all 310,000 compounds or so, about 14,000 (4.5%) showed an effect of 50% or more. The effect is printed as a negative number. This is one part of the list.

Biological target: human ether-à-go-go-related gene (hERG) potassium channel (human, UniProt Q12809)
Assay: primary screen, population patch clamp on CHO cells stably expressing hERG
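Further: peak tail current of the secondary pulse compared with the same well before compound.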

Sequence of human ether-à-go-go-related gene (hERG) potassium channel (Q12809 whole entry, looked up): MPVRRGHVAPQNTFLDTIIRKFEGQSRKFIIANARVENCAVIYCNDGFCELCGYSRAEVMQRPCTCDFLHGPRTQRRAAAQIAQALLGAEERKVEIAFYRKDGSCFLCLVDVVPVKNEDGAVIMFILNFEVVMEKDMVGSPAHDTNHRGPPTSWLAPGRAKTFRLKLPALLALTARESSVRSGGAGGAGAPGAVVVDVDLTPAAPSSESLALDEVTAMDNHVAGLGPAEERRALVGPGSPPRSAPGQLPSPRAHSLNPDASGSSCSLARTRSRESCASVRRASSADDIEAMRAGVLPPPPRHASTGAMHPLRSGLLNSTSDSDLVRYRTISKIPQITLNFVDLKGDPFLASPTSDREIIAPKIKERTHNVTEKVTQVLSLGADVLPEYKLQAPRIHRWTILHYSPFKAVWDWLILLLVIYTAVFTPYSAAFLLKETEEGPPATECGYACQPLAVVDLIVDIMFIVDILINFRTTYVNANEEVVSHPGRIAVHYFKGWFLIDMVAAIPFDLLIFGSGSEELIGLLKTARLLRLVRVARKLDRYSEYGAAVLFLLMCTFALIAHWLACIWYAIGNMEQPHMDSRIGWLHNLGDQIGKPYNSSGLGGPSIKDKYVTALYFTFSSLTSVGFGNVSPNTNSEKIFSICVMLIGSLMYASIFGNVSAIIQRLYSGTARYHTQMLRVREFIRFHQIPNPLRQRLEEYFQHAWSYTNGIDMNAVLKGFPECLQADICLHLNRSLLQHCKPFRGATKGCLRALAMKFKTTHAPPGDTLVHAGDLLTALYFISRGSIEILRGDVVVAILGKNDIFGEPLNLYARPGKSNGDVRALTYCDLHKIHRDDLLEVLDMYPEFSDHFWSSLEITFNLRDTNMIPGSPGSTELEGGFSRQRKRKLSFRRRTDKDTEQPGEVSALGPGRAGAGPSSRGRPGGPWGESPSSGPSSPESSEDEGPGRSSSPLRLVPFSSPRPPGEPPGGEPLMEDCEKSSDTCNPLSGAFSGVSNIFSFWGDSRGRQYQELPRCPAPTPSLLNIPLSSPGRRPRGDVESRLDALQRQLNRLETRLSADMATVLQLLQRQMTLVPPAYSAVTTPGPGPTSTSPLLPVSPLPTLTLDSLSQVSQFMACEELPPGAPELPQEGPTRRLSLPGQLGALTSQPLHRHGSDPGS

Point of comparison: COc1cc2c(cc1OC)CN(CC(=O)Nc1ccccc1SC)CC2, “hERG current change (%, negative = inhibition) at 10uM” value -14%. Against it:
- CCOC(=O)c1ccc(NC(=O)c2sc3nc(N4CCOCC4)c4c(c3c2N)CCCC4)cc1 — higher, 13.7%
- O=C(CNS(=O)(=O)c1cccs1)N1CCC2(CC1)OCCO2 — higher, 1.9%
- CCC(=O)N(Cc1ccccc1)c1ccccn1 — higher, 24%
- Cc1cc(NS(=O)(=O)c2ccc(NC(=S)NC(=O)c3ccc(F)cc3)cc2)no1 — higher, 2.07%
- CS(=O)(=O)N1CCC(C(=O)N2CCN(c3cccc(Cl)c3)CC2)CC1 — higher, 8.32%
- CC1(C)CC(=O)C2=C(C1)N(N1CCOCC1)C(N)=C(C#N)C2c1cccnc1 (stereo not drawn) — higher, 11.3%
- Cc1ccc(OCCC(=O)Nc2ccc(S(=O)(=O)Nc3cc(C)nc(C)n3)cc2)cc1 — higher, 1.18%
- COCC(C)NCc1ccc(C)cc1C (stereo not drawn) — lower, -14.3%
- Cc1cc(NC(=O)CSCC(=O)N(C)Cc2ccc(F)cc2)no1 — higher, 10.7%
- COc1ccc2c(c1)Sc1ccccc1N2CCN(C)C.O=C(O)C(=O)O — lower, -21.3%
- COc1ccc(OC)c(S(=O)(=O)Nc2ccc(Oc3ccccc3)cc2)c1 — the same, -14%
- CS(=O)(=O)N1CCC(C(=O)NCc2ccc3c(c2)OCO3)CC1 — higher, 18.9%
- NNc1nc(N)c2c(n1)-c1ccccc1CC21CCCC1 — higher, 5.66%
- Cc1cc(N2CCN(c3ccccc3)CC2)nc(-n2nc(C)cc2C)n1 — lower, -63.2%
- Cc1ccc(-c2nc3ccccc3[nH]2)s1 — higher, -8.7%
- COc1ccc(N(C)C(=O)Cc2c(C(=O)O)n(C)c3ccccc23)c(OC)c1 — higher, 32.9%
- CC12CC3CC(C)(C1)CC(CN)(C3)C2.Cl — higher, 2.34%
- C=CCC(C(=O)OC)(C(=O)OC)c1ccccc1[N+](=O)[O-] — higher, 10.3%
- COc1ccccc1-c1nnc(SC/C(O)=C(\C#N)c2nc3ccccc3[nH]2)n1C1CCCCC1 — higher, -2.08%
- CC(C)CNC(=O)[C@H](Cc1ccccc1)NC(=O)c1ccco1 — higher, -6.82%
- Cc1ccc(-c2nnc(Nc3ccccc3)c3ccccc23)cc1S(=O)(=O)NCC1CCCO1 (stereo not drawn) — lower, -40.5%
- N#Cc1cnn2c(C(F)(F)F)c3c(nc12)CCCC3 — higher, -5.18%
- Cc1cc(NS(=O)(=O)c2ccc(NC(=O)CN3C(=O)c4ccccc4C3=O)cc2)nc(C)n1 — higher, 6.65%
- CC(=O)/C(=C\N(C)C)Sc1ccc(C)cc1 — higher, 32.3%
- CCOC(=O)CN1C(=O)C(O)(CC(=O)c2cccc(OC)c2)c2ccccc21 (stereo not drawn) — higher, 5.13%
- Cc1ccc(C(=O)Oc2coc(CSc3nnc(NC(=O)C4CC4)s3)cc2=O)cc1 — higher, 16.6%
- COc1ccc(CN2CCCCCC2)cc1Br — higher, -11.1%
- COc1ccc2cc3c(N)nn(C(=O)Cc4ccc(Cl)cc4)c3nc2c1 — higher, 11.2%
- Cc1cccc(OCCCC(=O)Nc2ccc(S(=O)(=O)Nc3ncccn3)cc2)c1C — higher, 17.2%
- COc1ccc(CNC(=O)CCNS(=O)(=O)c2ccc(NC(C)=O)cc2)cc1OC — higher, 8.05%
- Cc1ccc(-c2noc(COc3ccc4c(c3)OCO4)n2)cc1 — higher, 6.96%
- CCOC(=O)C1=c2/c(=C/c3ccncc3)c(N)c(C(=O)OC)n2C(=O)C(c2ccncc2)S1 (stereo not drawn) — higher, 1.36%
- COC(=O)c1c(C(=O)OC)c(-c2cccc(C)c2)n2c1CS(=O)C2 (stereo not drawn) — higher, 12.1%
- COC(=O)CNc1cccc(C(F)(F)F)c1 — higher, 4.99%
- COc1cccc(CC2CC(=O)N(CCc3ccc4c(c3)OCO4)C2=O)c1 (stereo not drawn) — lower, -19.1%
- O=C(Nc1ccc(N2CCN(C(=O)c3ccco3)CC2)c(Cl)c1)c1cc2ccccc2o1 — lower, -67.9%
- Cc1ccc2[nH]cc(CCCN3C(=O)c4ccccc4C3=O)c2c1 — lower, -51.4%
- COc1ccc(CN(CC2CCC(C(=O)O)CC2)C(=S)Nc2cc(Cl)ccc2OC)cc1 (stereo not drawn) — higher, 27.4%
- CC(C)CN1CCNC(=O)C1CC(=O)NCCCN1CCCc2ccccc21 (stereo not drawn) — higher, 8.85%
- CCOC(=O)CSc1nn(C)c(=S)s1 — higher, 0.202%
- O=C(CCSc1ccc(Cl)cc1)Nc1cccnc1 — higher, -11.6%
- COc1ccc(C(=O)N2CCCN(C)CC2)cc1S(=O)(=O)N(C)Cc1ccccc1 — lower, -23.3%
- COc1ccc(NC(=S)Nc2ccccc2C(F)(F)F)cc1 — higher, 17.2%
- COc1ccc(-c2cc(-c3ccccc3O)[nH]n2)cc1OC — higher, 8.6%
- COc1ccc(C(=O)COC(=O)/C=C/c2ccc(S(=O)(=O)Nc3cccc(S(N)(=O)=O)c3)cc2)cc1 — higher, 4.88%
- Cc1c(C(=O)NCc2ccccc2)oc2ccc(S(=O)(=O)N3CCCC3)cc12 — higher, 2.65%
- O=C1OCCC1Sc1nnc(-c2ccc(Br)cc2)o1 (stereo not drawn) — higher, 6.1%
- Cc1cc(C)c(OCCCCNCc2ccccc2)c(Cl)c1.O=C(O)C(=O)O — lower, -68.5%
- COc1ccccc1-n1c(C)nnc1SCC(=O)Nc1cccc(C(C)=O)c1 — higher, -4.67%
- COc1cc(C2NC(=S)NC(C)=C2C(=O)c2ccccc2)ccc1O (stereo not drawn) — higher, 5.4%
- CCC(=O)Nc1ccc2c(c1)nc(CN1CCCCC1)n2C — higher, 15%
- CC1(C)CC(=O)c2c(nn(-c3ccccc3)c2-c2ccncc2)C1 — higher, -1.35%
- Cc1ccc(OCC(=O)Nc2cccc(S(=O)(=O)N3CCCCCC3)c2)cc1C — higher, 14.7%
- CN(n1cnc2ccccc2c1=O)S(C)(=O)=O — higher, 9.81%
- CSc1nc2c(c(=O)n1C)SC(C)C2 (stereo not drawn) — higher, 4.31%
- O=CN1CCc2scc[n+]2-c2ccccc21.[Br-] — higher, 35.2%
- CCCCn1c(N)c(N(CCC(C)C)C(=O)C2=COCCO2)c(=O)[nH]c1=O — higher, 11.1%
- O=C(NCc1cccs1)c1cc(-c2ccc(O)cc2)on1 — higher, -3.59%
- OCc1ccccc1NC(=S)Nc1cccnc1 — higher, -8.56%
- COc1ccc(CCNC(=O)CNC(=O)c2ccco2)cc1 — higher, 5.2%
- COc1ccc(-c2noc(CN(C(=O)c3ccc(OC(C)=O)cc3)C(C)C)n2)cc1OC — higher, -12.3%
- COc1cc(/C=C\C(=O)NCc2ccc3c(c2)cc(C)n3C)cc(OC)c1OC — higher, 3.57%
- COP(=O)(OC)/C(C=O)=N/Nc1ccc([N+](=O)[O-])cc1 — lower, -36.3%
- O=c1[nH]c(/C=C\c2ccccc2F)nc(O)c1[N+](=O)[O-] — higher, 17.5%
- CC(C)NC(=O)NC(=O)COC(=O)CCCSc1nc2ccccc2s1 — higher, 6.35%
- CC(C)N1CCC2(CC1)NC(CO)(CO)CO2 — higher, 20.5%
- Cc1cc(C(=O)OCC(=O)NC(C)c2ccccc2)c(C)o1 (stereo not drawn) — higher, 14.9%
- N#Cc1nc(COc2ccccc2F)oc1NCCc1ccccc1 — higher, -4.44%
- CCN(Cc1ccccc1)S(=O)(=O)c1c[nH]c(C(=O)OC)c1 — higher, -9.39%
- O=C(COC(=O)c1cc(Br)ccc1O)Nc1cccnc1Cl — higher, 2.93%
- CC(=O)c1ccc(OCCCC(=O)NC2CCC(C)CC2)cc1 (stereo not drawn) — higher, -3.29%
- Cc1nccn1CC(O)COc1ccc([N+](=O)[O-])cc1 (stereo not drawn) — lower, -66.2%
- Cc1oc(-c2ccccc2F)nc1CS(=O)(=O)CC(=O)N1CCN(c2ccccc2)CC1 — higher, -5.57%
- Cc1csc(CN(C)C(=O)C2CCC(=O)N(CCCc3ccccc3)C2)n1 (stereo not drawn) — higher, -5.37%
- CC(C)(C)c1ccc(-c2nnc3sc(-c4ccccn4)nn23)cc1 — higher, -1.22%
- O=C(NCc1ccc(Cl)cc1)c1nccnc1CO — higher, 11.5%
- COc1ccc(F)cc1S(=O)(=O)N1CCCC(C)C1 (stereo not drawn) — higher, -11.7%
- COc1ccc(NC(=O)COc2nsnc2N2CCOCC2)cc1 — higher, 17.7%
- CCCCCCCCCCCC(=O)NC(C(=O)OCC)C(O)c1cccc([N+](=O)[O-])c1 (stereo not drawn) — higher, 11.8%
- CC(=O)c1cccc(S(=O)(=O)NCC(C)(C)N2CCOCC2)c1.O=C(O)C(=O)O — higher, 11.5%
- COC(=O)CCSc1cc(NCCOC(C)=O)c([N+](=O)[O-])c2nonc12 — lower, -25.6%
- COC(=O)C1=C(C)N(Cc2ccc(OC)cc2)C(=O)/C1=C\c1ccco1 — higher, 9.35%
- Cc1nn(C)c(C)c1S(=O)(=O)NC1CCCC1 — higher, -12%
- O=C(O)C1CC1C(=O)N1CCN(c2ccc(Cl)c(Cl)c2)CC1 (stereo not drawn) — higher, 5.27%
- N/C(CCN1CCCCC1)=N/O — higher, -0.58%
- CCOC(=O)C1=C(C)C2C3C(=O)N(c4cc(C)ccc4C)C(=O)C3C1(C)C1C(=O)N(c3cc(C)ccc3C)C(=O)C21 (stereo not drawn) — higher, 6.2%
- Cc1ccnc(NC(=O)CNC(=O)C23CC4CC(CC(C4)C2)C3)c1 — higher, -8.17%
- COc1c(C)cccc1C(=O)Nc1ccc(N2CCOCC2)c(Cl)c1 — lower, -21.2%
- Cn1c(=O)c2sccc2n2c(CCCC(=O)NCc3ccc(F)cc3)nnc12 — higher, 28.9%
